# Assay results reported in the supplement of paper PMC12632987.
# The full ranking holds about 2,300 sequences; the median of “median log2 fold change of GCK-ALFA target abundance (FLAG IP / Myc IP barcode read proportion)” is about 0.095, and the lowest 2% start at about -0.47. Some of the results follow.
# B1: LC3A_3_1823 (protein)
# chain: MEEEIEELIKLLKEAGHSEETIEAVKETIEALLEKGYEEAAKTFIELMKEMIHLPSELLLELAKDVKELVESEDLSEEELTEKIKELAKLYKNESEIEEL
# B2: LC3A_3_1707 (protein)
# chain: GEELLEEARKVLEEHGKSEETIEAALEALKALLERGFEEAAEELLELLKEAENLSDEILLWFFEDVKAVVARPDLTEEEVIAEIRRLWQTAKNDEEIEEL
# B3: LC3A_free_8_2467 (protein)
# chain: SSQEVVDTVTDGLDKLEEEVEKKAKELGLSELDILDLELLIGSVIADVISNSDKSVEEIRKTFEEGMEEVIEEAEKLSPELAELVRKGREEILKKLEELE
# B4: LC3A_free_8_2443 (protein)
# chain: SKQEIVDTALEKLEELEEWVREKAKELGLPEIDILELELLIGSAISEIISNSDKSPEEILKTTKESLEEIVEEAKKISEELAKEVKEKAEEILKELEKLL
# B5: LC3A_3_1844 (protein)
# chain: LEEAVAAALAELRAAGHSDETLAAVRETAEALAARGYEEALKTFIELMRELVHLPSELLLALAEDVLAYLKTNDASEAEVKEYIKEEARLYRNEAEIEEL
# B6: LC3A_28_786 (protein)
# chain: SKLKENVEKAIKEAKEAAAAGKSQVITIEVPGDATEEDVEYVIEGLEEIAKILDGVKDQAIIIDVDSKVKEEHIKKLAEKADEIEEKYPNVTVIIALEEK
# B7: LC3A_free_39_2240 (protein)
# chain: SMERIEAVIREIAEESGLPEEEVRAAMEEIQRVAGLTPEQMLEIAEAILEAVRAGADGREILEESLRIARELKAEGKTPEEIKEAILEHIRDMRNLVPLD
# B8: LC3A_147_493 (protein)
# chain: AVIEIDILVKDKETAEEIVEEIKKIVEELKKEGYEVELEVEIEKLDEDTYYVRVTIKIKAKTPEEEKKAADKVLKEIEKILEKHKDRVLAALINVEYEEE
# B9: LC3A_28_1254 (protein)
# chain: MEVEESIEKALKEAKEAVEKGEEALVTIKVPAGITEEEVEKVIEAMEEIAELTKSLPKTTILVDVEAGVKQEAIDKLADKGEELEKKYPHLTVILALEEE
# B10: LC3A_28_1083 (protein)
# chain: SAIQEQIEAAIAALREAKARGEEALLEITLTEDATQEDIDLAIEGLREIAELARDAKKVTVVINLDGKIPQEHIDRLADAAEEIEKEVPNVTVIIALDEN
# B11: LC3A_37_1346 (protein)
# chain: MERLLIVAVGRTEAALEKVRPTLERLAARSGAEVRTVVAPADATETELLERAEEEVEEIKEELEKETGKKIKSSTIFSVERDPETGETVVIAYSLLEEVE
# B12: LC3A_28_1164 (protein)
# chain: SETEKSLEEALKEAKEAAEKKEPKTIVIKIEGGITQEETDKVIEALEEIAELLKDIPGSAIVIDISSGVSQEQLNKILDAAEEIEEKYPNVTVIIALDEN
# B13: LC3A_3_1764 (protein)
# chain: MEEFIEEAAEELREAGASEELIELASEALRLLLERGLEETAERFKEVLLELLKKSEELALDLAREVLELLKTSTLSPEELAEEVESLMNAALSEAEIEEL
# B14: LC3A_45_1969 (protein)
# chain: MARATVDLLVPREKAEEAYKIIKEFAEEAKEKYGDKVEFDWETLDESYEASKNEEEVYFRVVITAETKELALEVADELVERLEEELGVPIAAIISLEELP
# B15: LC3A_102_149 (protein)
# chain: SAVEKLKKLEEKALKEAKKIAEKLKKKDPELAKKVLELLEEGIKAITESAISEVQHGFTDIYAEDLAEEKLEELKKLGEEEGVKLLEKVREEAKKIVEEA
# B16: LC3A_28_1010 (protein)
# chain: MSVVEETKKEAEKALEEAKKGNDAYLEIKITKDTTLEEVKEIGKIIEETAKKISEIENVKLYIVVDDDSNEEKHNIILDKLDEIEKKYPNVSSIVAYTDE
# B17: LC3A_28_1109 (protein)
# chain: SKTEEQIKKALEKAKEAAKKGEPVVITLTVTSEDTEEDIEKILKALEEIAEILKDVEGAAIIIDLDGKIPQEHLDKLADKAEEIEKKYPNVTVIIALDEN
# B18: LC3A_102_137 (protein)
# chain: ELEKVAEEVEAELEKEVEELLAKRTDLTPEEKEELRRLARRAFEAAKESWRDYVEHGFVDIVAEDESLRAIDELAARDPELAAVVRRKVEELRERAEKLK
# B19: LC3A_28_1311 (protein)
# chain: TPIEEKLAAAIAEAEAAAKAGEPVVVTVDITAEEAEKNLELILEGLERLGEVLSKVPDAAIIIDVDEDVDPEHLKKIADRAEEIEEKYPNVTVIIAIEDK
# B20: LC3A_28_1293 (protein)
# chain: SEIEKNLEEALARAKEAVAAGKQEVIEVNVPGDATEEEIEKVIEGLEEIAEVLKTVPNQSIIINVDAGVPQEYINKLADKAEEIEKKYPNVTVIIALDED
# B21: LC3A_free_46_2407 (protein)
# chain: YIAEISIDLLADSLEKAEAARKEIEEAARKIAEEHGAKLKIESEIEEEPDGKVFVRIDLIIEAEDLETLKAAVNEIIDAAVEIAEKEGASIIISYEISEK
# B22: LC3A_3_1581 (protein)
# chain: MEERLAAYEAELRAAGLSPEVVAKATEVLTLALERGLLETADYILESMLELKDADPELLLETLDEIKAILDDESLSDEEKTAKVKEELNTALSESEIIEL
# B23: LC3A_23_599 (protein)
# chain: MYKVTVTIDAIGDKEELEKKVEELKKGVEELIEKYKDKVISYEIEVEFEELEDGKTYMTVTITIILKDDKEVAEKIAQELTDIADKVFPDGVISSDVEKL
# B24: LC3A_28_1189 (protein)
# chain: SELDKQLEEAIKEAKELAEKGEPAVITIKVPGDADEEDIEKVIETLEEIAEILKDIPGSAIIIDLDGGVKQEHIDKLAEKAEEIEKKYPNVTVILALEER
# B25: LC3A_132_316 (protein)
# chain: MEEEYKKLLEEAEKKLEEAKKNVNDKEKVEKLLKEIRKLLEEAEKKVTPEQQAELFERVAEKLWEISKLADEAGQEDVADLADGLAVEAAARAIRAEEKI
# B26: LC3A_132_303 (protein)
# chain: EEELVKELIKTAKEALDIAKTDPSKVEEILAKLKEIRKLMKEVAEKVSPEKAAKAFEEVMDILIELSRIAAKAGQDEVADEAFALAAEAAQLAEEARKKI
# B27: LC3A_6_2062 (protein)
# chain: TKLTITIDALIKEEYLDRREEVAEEFKKAVEEAMEELKKKLGDNIKEVKIELETEGDFIRITVTVETEEKNIPEVLKAIDEVVESFEKYFSAAIISYEIE
# B28: LC3A_28_1034 (protein)
# chain: MELEKKAREAVEEAREQAAKGEEAVVTIEVGEMPTEEAERVVRETLEELIKISREYGNVKISVVIDVDGDQETADALIDVAEEAEKENPNLTVIIALDED
# B29: LC3A_17_537 (protein)
# chain: MEELRKRLEEVLRELERLVERVRPYVPEAAERAEERLREARELLERGDLEGAARLVVEVAEELADALEEAEFADPVEREVLIMEAEGLAIEAELILLKLE
# Target: MAP1LC3A, Q9H492
# Assay: median log2 fold change of GCK-ALFA target abundance (FLAG IP / Myc IP barcode read proportion) (log2 ratio); each designed protein is fused to an ALFA-tag nanobody in HEK293 cells to bring the named protein to FLAG-tagged glucokinase (GCK); Myc marks an untargeted standard; higher = target protein stabilised (more abundant)
# Details: target protein: 3xFLAG-MCP-GCK-ALFA reporter; HEK293 landing pad (RPLP)
# How it was run: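 Binders fused to an ALFA nanobody were recombined as a library into HEK293 landing-pad cells, which were induced with 2 μg mL^−1 doxycycline and then transfected to express a FLAG-tagged target and a Myc-tagged standard. After 48 h, circular RNA barcodes recovered by anti-FLAG and anti-Myc immunoprecipitation of lysates were reverse transcribed, amplified and sequenced. Each binder's target abundance is the median log2 ratio of FLAG to Myc barcode read proportions, from barcodes present at ≥10^−7 in both replicates, binders carrying ≥3 barcodes per replicate, a 10^−6 pseudocount and pooled replicates.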
row,Binder,median log2 fold change
1,B1,0.448
2,B2,0.207
3,B3,-0.0709
4,B4,0.241
5,B5,0.167
6,B6,0.16
7,B7,0.299
8,B8,-0.0794
9,B9,0.175
10,B10,0.181
11,B11,-0.245
12,B12,-0.0529
13,B13,0.243
14,B14,0.0353
15,B15,0.245
16,B16,-0.515
17,B17,0.0394
18,B18,0.194
19,B19,0.178
20,B20,0.141
21,B21,-0.408
22,B22,0.31
23,B23,-0.25
24,B24,0.119
25,B25,0.241
26,B26,0.291
27,B27,-0.06
28,B28,0.0335
29,B29,-0.141
